Measurements: the supplement of paper PMC8728848
The other results are listed elsewhere or left out.

Columns and labels:
Experiment in all cases: glycan array binding signal (z-score within array); higher = stronger binding
Details in all cases: glycan notation: IUPAC condensed, linker removed
[1] = target: Neu5Ac(a2-3)Gal(b1-4)GlcNAc(b1-2)Man(a1-3)[GlcNAc(b1-2)Man(b1-4)GlcNAc(b1-2)Man(a1-6)]Man(b1-4)GlcNAc(b1-4)GlcNAc
Procedure, shortened: (§1)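 Columns mapping to the same glycan were averaged after glycan names were converted to IUPAC-condensed notation. The data come from 3228 arrays in the Consortium for Functional Glycomics database, limited to those with an available protein sequence. Binding is reported as a within-array Z-score averaged across arrays of one protein sequence and across linkers.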

[2] = target: Neu5Ac(a2-3)Gal(b1-4)GlcNAc(b1-2)Man(a1-3)[Neu5Ac(a2-6)Gal(b1-4)GlcNAc(b1-2)Man(a1-6)]Man(b1-4)GlcNAc(b1-4)GlcNAc
Procedure, shortened: as §1

[3] = target: Neu5Ac(a2-3)Gal(b1-4)GlcNAc(b1-3)Gal
Procedure, shortened: as §1

[4] = target: Neu5Ac(a2-3)Gal(b1-4)GlcNAc(b1-3)Gal(b1-3)GlcNAc
Procedure, shortened: as §1

[5] = target: Neu5Ac(a2-3)Gal(b1-4)GlcNAc(b1-3)Gal(b1-4)GlcNAc
Procedure, shortened: as §1

[6] = target: Neu5Ac(a2-3)Gal(b1-4)GlcNAc(b1-3)Gal(b1-4)GlcNAc(b1-3)Gal(b1-4)GlcNAc
Procedure, shortened: as §1

[7] = target: Neu5Ac(a2-3)Gal(b1-4)GlcNAc(b1-3)Gal(b1-4)[Fuc(a1-3)]GlcNAc
Procedure, shortened: as §1

[8] = target: Neu5Ac(a2-3)Gal(b1-4)GlcNAc(b1-3)GalNAc
Procedure, shortened: as §1

[9] = target: Neu5Ac(a2-3)Gal(b1-4)GlcNAc(b1-6)[Gal(b1-3)]GalNAc
Procedure, shortened: as §1

[10] = target: Neu5Ac(a2-3)Gal(b1-4)GlcNAc(b1-6)[Neu5Ac(a2-3)Gal(b1-3)]GalNAc
Procedure, shortened: as §1

[11] = target: Neu5Ac(a2-3)Gal(b1-4)GlcNAc6S
Procedure, shortened: as §1

[12] = target: Neu5Ac(a2-3)Gal(b1-4)[Fuc(a1-3)]GlcNAc
Procedure, shortened: as §1

[13] = target: Neu5Ac(a2-3)Gal(b1-4)[Fuc(a1-3)]GlcNAc(b1-3)Gal
Procedure, shortened: as §1

[14] = target: Neu5Ac(a2-3)Gal(b1-4)[Fuc(a1-3)]GlcNAc(b1-3)Gal(b1-4)GlcNAc
Procedure, shortened: as §1

[15] = target: Neu5Ac(a2-3)Gal(b1-4)[Fuc(a1-3)]GlcNAc(b1-3)Gal(b1-4)[Fuc(a1-3)]GlcNAc(b1-3)Gal(b1-4)[Fuc(a1-3)]GlcNAc
Procedure, shortened: as §1

[16] = target: Neu5Ac(a2-3)Gal(b1-4)[Fuc(a1-3)]GlcNAc(b1-3)GalNAc
Procedure, shortened: as §1

[17] = target: Neu5Ac(a2-3)Gal(b1-4)[Fuc(a1-3)]GlcNAc(b1-6)[Gal(b1-3)]GalNAc
Procedure, shortened: as §1

[18] = target: Neu5Ac(a2-3)Gal(b1-4)[Fuc(a1-3)]GlcNAc(b1-6)[Neu5Ac(a2-3)Gal(b1-3)]GalNAc
Procedure, shortened: as §1

[19] = target: Neu5Ac(a2-3)Gal(b1-4)[Fuc(a1-3)]GlcNAc6S
Procedure, shortened: as §1

[20] = target: Neu5Ac(a2-3)Gal6S(b1-4)GlcNAc
Procedure, shortened: as §1

[21] = target: Neu5Ac(a2-3)Gal6S(b1-4)[Fuc(a1-3)]GlcNAc
Procedure, shortened: as §1

[22] = target: Neu5Ac(a2-3)GalNAc
Procedure, shortened: as §1

[23] = target: Neu5Ac(a2-3)GalNAc(b1-4)GlcNAc
Procedure, shortened: as §1

[24] = target: Neu5Ac(a2-3)[GalNAc(b1-4)]Gal(b1-4)Glc
Procedure, shortened: as §1

[25] = target: Neu5Ac(a2-3)[GalNAc(b1-4)]Gal(b1-4)GlcNAc
Procedure, shortened: as §1

[26] = target: Neu5Ac(a2-3)[GalNAc(b1-4)]Gal(b1-4)GlcNAc(b1-3)GalNAc
Procedure, shortened: as §1

[27] = target: Neu5Ac(a2-3)[Neu5Ac(a2-6)]GalNAc
Procedure, shortened: as §1

[28] = target: Neu5Ac(a2-6)Gal
Procedure, shortened: as §1

[29] = target: Neu5Ac(a2-6)Gal(b1-3)GlcNAc(b1-3)[Gal(b1-4)GlcNAc(b1-6)]Gal(b1-4)Glc
Procedure, shortened: as §1

[30] = target: Neu5Ac(a2-6)Gal(b1-4)Glc
Procedure, shortened: as §1

[31] = target: Neu5Ac(a2-6)Gal(b1-4)GlcNAc
Procedure, shortened: as §1

[32] = target: Neu5Ac(a2-6)Gal(b1-4)GlcNAc(b1-2)Man(a1-3)Man(b1-4)GlcNAc(b1-4)GlcNAc
Procedure, shortened: as §1

[33] = target: Neu5Ac(a2-6)Gal(b1-4)GlcNAc(b1-2)Man(a1-3)[Gal(b1-4)GlcNAc(b1-2)Man(a1-6)]Man(b1-4)GlcNAc(b1-4)GlcNAc
Procedure, shortened: as §1

[34] = target: Neu5Ac(a2-6)Gal(b1-4)GlcNAc(b1-2)Man(a1-3)[GlcNAc(b1-2)Man(a1-6)]Man(b1-4)GlcNAc(b1-4)GlcNAc
Procedure, shortened: as §1

[35] = target: Neu5Ac(a2-6)Gal(b1-4)GlcNAc(b1-2)Man(a1-3)[GlcNAc(b1-2)Man(b1-4)GlcNAc(b1-2)Man(a1-6)]Man(b1-4)GlcNAc(b1-4)GlcNAc
Procedure, shortened: as §1

[36] = target: Neu5Ac(a2-6)Gal(b1-4)GlcNAc(b1-2)Man(a1-3)[Man(a1-6)]Man(b1-4)GlcNAc(b1-4)GlcNAc
Procedure, shortened: as §1

[37] = target: Neu5Ac(a2-6)Gal(b1-4)GlcNAc(b1-2)Man(a1-3)[Neu5Ac(a2-6)Gal(b1-4)GlcNAc(b1-2)Man(a1-6)]Man(b1-4)GlcNAc(b1-4)GlcNAc
Procedure, shortened: as §1

[38] = target: Neu5Ac(a2-6)Gal(b1-4)GlcNAc(b1-2)Man(a1-6)Man(b1-4)GlcNAc(b1-4)GlcNAc
Procedure, shortened: as §1

[39] = target: Neu5Ac(a2-6)Gal(b1-4)GlcNAc(b1-2)Man(a1-6)[Gal(b1-4)GlcNAc(b1-2)Man(a1-3)]Man(b1-4)GlcNAc(b1-4)GlcNAc
Procedure, shortened: as §1

[40] = target: Neu5Ac(a2-6)Gal(b1-4)GlcNAc(b1-2)Man(a1-6)[GlcNAc(b1-2)Man(a1-3)]Man(b1-4)GlcNAc(b1-4)GlcNAc
Procedure, shortened: as §1

[41] = target: Neu5Ac(a2-6)Gal(b1-4)GlcNAc(b1-2)Man(a1-6)[Man(a1-3)]Man(b1-4)GlcNAc(b1-4)GlcNAc
Procedure, shortened: as §1

[42] = target: Neu5Ac(a2-6)Gal(b1-4)GlcNAc(b1-3)Gal(b1-3)GlcNAc
Procedure, shortened: as §1

[43] = target: Neu5Ac(a2-6)Gal(b1-4)GlcNAc(b1-3)Gal(b1-4)GlcNAc
Procedure, shortened: as §1

[44] = target: Neu5Ac(a2-6)Gal(b1-4)GlcNAc(b1-3)Gal(b1-4)GlcNAc(b1-3)Gal(b1-4)GlcNAc
Procedure, shortened: as §1

[45] = target: Neu5Ac(a2-6)Gal(b1-4)GlcNAc(b1-3)Gal(b1-4)[Fuc(a1-3)]GlcNAc(b1-3)Gal(b1-4)[Fuc(a1-3)]GlcNAc
Procedure, shortened: as §1

B1: ASAL (Allium sativum), P83886 (protein)
chain: MGRTTSSPKAMMRIATVAAILTILASTCMARNVLTNGEGLYAGQSLDVEQYKFIMQDDCNLVLYEYSTPIWASNTGVTGKNGCRAVMQRDGNFVVYDVNGRPVWASNSVRGNGNYILVLQKDRNVVIYGSDIWSTGTYRRSVGGAVVMAMNGTVDGGSVIGPVVVNQNVTAAIRKVGTGAA
glycan array binding signal (z-score) [1]: -0.284 | glycan array binding signal (z-score) [2]: -0.154 | glycan array binding signal (z-score) [3]: -0.236 | glycan array binding signal (z-score) [4]: -0.271 | glycan array binding signal (z-score) [5]: -0.221 | glycan array binding signal (z-score) [6]: -0.268 | glycan array binding signal (z-score) [7]: -0.22 | glycan array binding signal (z-score) [8]: -0.248 | glycan array binding signal (z-score) [9]: -0.302 | glycan array binding signal (z-score) [10]: -0.302 | glycan array binding signal (z-score) [11]: -0.252 | glycan array binding signal (z-score) [12]: -0.271 | glycan array binding signal (z-score) [13]: -0.249 | glycan array binding signal (z-score) [14]: -0.139 | glycan array binding signal (z-score) [15]: -0.269 | glycan array binding signal (z-score) [16]: 0.092 | glycan array binding signal (z-score) [17]: -0.077 | glycan array binding signal (z-score) [18]: -0.197 | glycan array binding signal (z-score) [19]: -0.299 | glycan array binding signal (z-score) [20]: -0.23 | glycan array binding signal (z-score) [21]: -0.267 | glycan array binding signal (z-score) [22]: -0.276 | glycan array binding signal (z-score) [23]: -0.258 | glycan array binding signal (z-score) [24]: -0.224 | glycan array binding signal (z-score) [25]: -0.258 | glycan array binding signal (z-score) [26]: -0.23 | glycan array binding signal (z-score) [27]: -0.245 | glycan array binding signal (z-score) [28]: -0.257 | glycan array binding signal (z-score) [29]: -0.166 | glycan array binding signal (z-score) [30]: -0.297 | glycan array binding signal (z-score) [31]: -0.271 | glycan array binding signal (z-score) [32]: -0.285 | glycan array binding signal (z-score) [33]: 0.451 | glycan array binding signal (z-score) [34]: 1.07 | glycan array binding signal (z-score) [35]: -0.246 | glycan array binding signal (z-score) [36]: 0.085 | glycan array binding signal (z-score) [37]: 0.385 | glycan array binding signal (z-score) [38]: -0.283 | glycan array binding signal (z-score) [39]: 4.59 | glycan array binding signal (z-score) [40]: 5.01 | glycan array binding signal (z-score) [41]: -0.12 | glycan array binding signal (z-score) [42]: -0.147 | glycan array binding signal (z-score) [43]: -0.226 | glycan array binding signal (z-score) [44]: -0.266 | glycan array binding signal (z-score) [45]: -0.162
